# From PubChem BioAssay AID1671193 (National Center for Advancing Translational Sciences (NCATS), 2021)
# In all, about 150,000 compounds went through this assay and about 180 (0.12%) were called active. This list was built around the results that the source calls inconclusive (neither active nor inactive); the mix of calls is not that of the screen. Calls follow the shape of the dose curve; as a rule, active = well fitted cell-killing curve with a large enough effect; inconclusive = small, poorly fitted or top-dose-only effect, or effect the other way; inactive = flat fitted curve, though single readings scatter. A potency beside an inconclusive call is a rough fit, not a confirmed value.
# Experiment: GF-AFC viability counterscreen for inhibitors of alpha-synuclein gene (SNCA) expression; also: nearly all actives have a fitted effect of over 30% in size;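 as to activity change, negative = cytotoxicity: 0% = DMSO-treated cells and -100% = medium-only wells without cells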
# Conditions: HEK-293-SNCA-luc viability, GF-AFC fluorescence, 24 h; activity change, negative = cytotoxicity: at 57.1 µM (top of the series) unless noted
# Procedure, shortened: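 HEK-293-SNCA-luc cells (1500/well) plated 24 h, then exposed 24 h to a dilution series; GF-AFC added 30 min at 37C, fluorescence 405/540 nm; normalised to medium-only and DMSO wells, Hill fit.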
# Potency is read from the fitted curve at half-maximal effect; tags tell the direction and shape of the fitted curve.
Structure (SMILES),Potency,"activity change, negative = cytotoxicity"
COc1ccc(-c2nc(C3CC3)nc3c2CCN(Cc2cc(C)on2)CC3)cc1,"inconclusive: 3.98 µM [cytotoxic, single point]",
CC1=C[C@@H](CNC(C)C)[C@H](C(C)C)C[C@H]1Cc1nnc(-c2ccc(C)cc2)o1,"inconclusive: 50.1 µM [cytotoxic, single point]",
Cc1ccc(Nc2ccnc(N3CCC(N[S+](=O)([O-])c4ccc(C)cc4)CC3)n2)cc1,"inconclusive: 28.2 µM [cytotoxic, single point]",
Cc1ccccc1N1CC(c2nc3ccccc3n2CCC2CCCCC2)CC1=O (stereo not drawn),"inconclusive: 28.2 µM [cytotoxic, single point]",
O=C(NCCC1=CCCCC1)c1cc2n(n1)CC(c1ccc3c(c1)OCO3)OC2 (stereo not drawn),inactive,
CCOc1ccc(-c2nonc2NC(=O)COc2c(C)cc(C)cc2C)cc1OCC,,inconclusive: 39.7%
COC(=O)N1CCC(n2ncc3c(N4CCOCC4)nc(-c4ccc(NC(=O)Nc5ccc(CO)cc5)cc4)nc32)CC1,"inconclusive: 0.377 µM [cytotoxic, full curve]",
Cc1c(CCNC(=O)c2ccc(Br)o2)sc2nc(-c3ccc(F)cc3)nn12,"inconclusive: 28.2 µM [cytotoxic, single point]",
Cc1ccc(C)c(N2CCN(CCCNC(=O)c3cnn(-c4ccccc4Cl)c3C3CCN(C(=O)OC(C)(C)C)CC3)CC2)c1,"inconclusive: 35.5 µM [cytotoxic, single point]",
C=C1C(=O)OC2CC(C)=C(C(C)CCCOC(C)=O)C(OC(=O)CC(C)CC)C12 (stereo not drawn),"inconclusive: 14.6 µM [cytotoxic, single point]",
COc1ccc(Cc2nc3nccc(-c4cc(OC)c(OC)c(OC)c4)n3n2)cc1,inactive,
CC(=O)NC1(C)CCN(Cc2ccc(-c3ccc4c(ccn4C)c3)cc2)C1 (stereo not drawn),inactive,
CCCCNc1nc2c(c(=O)n(Cc3ccc(Cl)cc3)c(=O)n2C)n1C,"inconclusive: 25.1 µM [cytotoxic, single point]",
CCOc1ccc(CC(=O)N2CC(c3nnc(-c4ccncc4)o3)C3(CCOCC3)C2)cc1 (stereo not drawn),inactive,
O=C(C1CCCN1C(=O)Nc1ccccc1)N1CCCC(c2nc3ncccc3[nH]2)C1 (stereo not drawn),inactive,
Cc1cc(NCc2ccc(S(N)(=O)=O)cc2)n2nc(C)c(C)c2n1,"inconclusive: 14.1 µM [rising, partial curve, poor fit]",
COc1ccccc1-n1nc(-c2c(C)nc3scc(CC(=O)NCc4ccccc4)n3c2=O)cc1C,inactive,
COCCNCc1ccc(-c2cc3nccc(Oc4ccc(NC(=O)C5(C(=O)Nc6ccc(F)cc6)CC5)cc4F)c3s2)nc1,"inconclusive: 29.9 µM [cytotoxic, partial curve, poor fit]",
O=C(Cn1cc(SCc2c(F)cccc2Cl)c2ccccc21)N1CCCCCC1,"inconclusive: 39.8 µM [cytotoxic, single point]",
COc1cc(OC)cc(C(=O)N2CCC(n3cc(-c4nc(C)no4)nn3)CC2)c1,"inconclusive: 6.31 µM [cytotoxic, single point]",
Cc1ccc(CNC(=O)N2CCCCCNC(=O)CC2c2ccccc2)cc1 (stereo not drawn),"inconclusive: 7.08 µM [cytotoxic, single point]",

Structure (SMILES),Potency,"activity change, negative = cytotoxicity"
COCCn1c(=N)c(C(=O)NC(C)c2ccccc2)cc2c(=O)n3cc(C)ccc3nc21 (stereo not drawn),"inconclusive: 5.62 µM [rising, partial curve]",
O=C(C[C@@H]1CCNC[C@@H]1Cc1cc(CSc2ccccc2)on1)N1CCCCC1,inactive,
CCOc1ccccc1N(CC(=O)N1CCc2ccccc2C1)S(=O)(=O)c1ccccc1,"inconclusive: 22.4 µM [cytotoxic, partial curve, poor fit]",
CCc1ccc(C(=O)N2CCC(n3cnnc3CC)CC2)cc1,inactive,
Cc1cccc(CC(=O)N2CCC[C@H]2c2nc(-c3ccccc3)no2)c1,"inconclusive: 39.8 µM [rising, single point]",
O=C(c1ccncc1)N1CCC2(CC1)CC(N(Cc1ccc(F)cc1)C1CC1)CCO2 (stereo not drawn),inactive,
CCC(c1cccs1)N1C(=O)[C@H]2CN(CCC(C)C)C[C@H]2C1=O (stereo partly drawn),"inconclusive: 4.47 µM [cytotoxic, full curve, poor fit]",
CCN(CC)S(=O)(=O)c1ccc2c(c1)N(CC(=O)N1CCN(c3ccc(F)cc3)CC1)C(=O)CO2,"inconclusive: 8.91 µM [cytotoxic, partial curve, poor fit]",
CCOc1ccc(Nc2nc(-c3c(C)nc4ccccn34)cs2)cc1,"inconclusive: 16.8 µM [cytotoxic, partial curve, poor fit]",
COc1ccc(C(=O)Cn2c(=O)c(-c3cc(C)ccc3NC(C)=O)nc3ccccc32)cc1,"inconclusive: 1.58 µM [cytotoxic, full curve, poor fit]",
COc1ccc(C2C=C(c3ccccc3)Nc3nc(NS(=O)(=O)c4ccc(Cl)cc4)nn32)cc1 (stereo not drawn),"inconclusive: 28.2 µM [rising, partial curve]",
O=C(C1CCOCC1)N1CC(Oc2ccc(-c3nc(-c4ccccc4)no3)cc2)C1,"inconclusive: 4.47 µM [cytotoxic, partial curve, poor fit]",
COC(=O)[C@@H]1Cc2c([nH]c3ccccc23)[C@H]2C[C@@H](N3CCOCC3)C[C@@H](c3ccc(C(F)(F)F)cc3)N21,inactive,
CC(C)n1c(=N)c(C(=O)NCc2ccccc2)cc2c(=O)n3ccccc3nc21,"inconclusive: 1 µM [rising, full curve]",
Clc1ccc(Nc2nc3ccccc3c3nc(C4CCCCC4)[nH]c23)cc1Cl,"inconclusive: 11.9 µM [cytotoxic, partial curve]",
CCOc1ccc(NC(=O)Cn2cc(C(=O)c3ccco3)c3ccccc32)cc1,"inconclusive: 39.8 µM [cytotoxic, single point]",
O=C(CN1CCn2nc(CO)cc2C1)N1CCOc2ccccc21,inactive,
Cc1ccc(CCNC(=O)C2CCN(Cc3nc(-c4ccccc4C)oc3C)CC2)cc1,"inconclusive: 3.98 µM [cytotoxic, single point]",
COc1ccc(-c2ccc3ncn(Cc4ccccc4)c(=O)c3n2)cc1OC,"inconclusive: 56.2 µM [cytotoxic, single point]",
CC(C)(C)OC(=O)N1CCC(c2c(C(=O)NCCN3CCC(Cc4ccccc4)CC3)cnn2-c2ccc(F)cc2)CC1,"inconclusive: 39.8 µM [cytotoxic, single point]",
COc1ccc(C(=O)N2CCCN(c3nnc4ccccn34)CC2)cc1F,"inconclusive: 39.8 µM [cytotoxic, single point]",

Structure (SMILES),Potency,"activity change, negative = cytotoxicity"
COc1ccc(-c2cc(C[C@@H]3CC[C@H](O)[C@@H](CN(Cc4ccccc4OC)Cc4ccccc4OC)O3)no2)cc1,"inconclusive: 22.4 µM [cytotoxic, single point]",
O=C(c1cccc(Cl)c1)N1CCCC(C(=O)N2CCC(N3CCOCC3=O)CC2)C1 (stereo not drawn),"inconclusive: 3.16 µM [cytotoxic, full curve, poor fit]",
COc1cccc(C(=O)N2CCC3(CC2)Cc2ccccc2NC3=O)c1,inactive,
C=CCn1cc2c3c(cccc31)[C@H](CC(C)C)N[C@H](C(=O)N1CCN(C)CC1)C2,inactive,
COc1ccc(CC(=O)N2CCC(Nc3nccnc3OC)CC2)cc1,inactive,
O=C(NCc1ccccc1)N1CC(c2nc(CCOCC3CCCC3)no2)C1,inactive,
CNC(=O)c1cccc(-c2ccc3c(N4CCOC[C@@H]4C)nc(N4CCOC[C@@H]4C)nc3n2)c1,inactive,
O=C(NCC(F)(F)F)C1CCCN(Cc2cccc(-c3ccc(F)cc3F)c2)C1 (stereo not drawn),inactive,
CC1(c2ccccc2)N(Cc2ccccc2)C(=O)OC12CCN(Cc1ccccn1)CC2 (stereo not drawn),"inconclusive: 44.7 µM [cytotoxic, partial curve, poor fit]",
COc1cccc(CN2CC[C@H](c3nc4ccccc4s3)C2)c1,inactive,
CN1C(=O)C2(CCN(Cc3ccc(F)cc3)C2)c2ccccc21 (stereo not drawn),"inconclusive: 56.2 µM [cytotoxic, single point]",
c1ccc(-c2cnc([C@@H]3COCCN3Cc3ccncc3)[nH]2)cc1,inactive,
CC1=C[C@@H](CN2CCN(C)CC2)[C@H](C(C)C)C[C@H]1Cc1nnc(-c2ccccc2F)o1,"inconclusive: 39.8 µM [cytotoxic, partial curve, poor fit]",
Cc1ccn2c(C(=O)N3CC[C@@](C)(O)[C@@H](O)C3)nnc2n1,inactive,
COc1cc(NC(=O)CCS(=O)(=O)c2nc(-c3cccs3)cc(C(F)(F)F)n2)cc(OC)c1OC,"inconclusive: 39.8 µM [cytotoxic, single point]",
O=C(CSc1cn(CC(=O)N2CCCCC2)c2ccccc12)Nc1ccccc1F,"inconclusive: 31.6 µM [cytotoxic, single point]",
COc1ccc(C(=O)c2cn(Cc3ccc(C)cc3)c3cc4c(cc3c2=O)OCO4)cc1,"inconclusive: 8.91 µM [cytotoxic, full curve]",
COc1ccc(C(=O)NCCc2ncc(C)n2C2CCC2)c(OC)n1,"inconclusive: 2.82 µM [cytotoxic, partial curve, poor fit]",
CN1C(=O)C2(CCN(Cc3ccc(C#N)cc3)C2)c2ccccc21 (stereo not drawn),"inconclusive: 28.2 µM [cytotoxic, single point]",
O=C(CCC1CCN(c2cc(NC3CC3)ncn2)CC1)Nc1ccccc1,inactive,
COc1ccc(C(=O)NC2CCN(c3cc(-c4ccc(Cl)cc4)[nH]n3)C2)c(OC)c1 (stereo not drawn),"inconclusive: 22.4 µM [cytotoxic, single point]",
